Here are results for one molecule from patent publication US20220251222A1 (Johns Hopkins, published 2022).

Assay [1] addresses T1, IL-6R on IL-6-responsive HepG2 cells (UniProt P08887 20-468, limits assumed).
T1 sequence (looked up): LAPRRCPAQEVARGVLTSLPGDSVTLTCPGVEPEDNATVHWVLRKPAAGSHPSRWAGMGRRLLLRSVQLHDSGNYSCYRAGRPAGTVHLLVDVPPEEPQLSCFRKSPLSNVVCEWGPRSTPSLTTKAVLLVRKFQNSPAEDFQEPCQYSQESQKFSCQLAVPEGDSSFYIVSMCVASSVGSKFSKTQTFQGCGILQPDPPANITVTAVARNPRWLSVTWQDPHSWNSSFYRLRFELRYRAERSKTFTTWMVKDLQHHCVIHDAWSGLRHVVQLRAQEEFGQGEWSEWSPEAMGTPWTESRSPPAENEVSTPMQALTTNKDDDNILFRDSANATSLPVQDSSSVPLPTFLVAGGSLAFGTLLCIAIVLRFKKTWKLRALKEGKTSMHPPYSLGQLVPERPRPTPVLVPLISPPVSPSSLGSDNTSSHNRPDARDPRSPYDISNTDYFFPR
Nature of the assay: cell-based or functional assay.

Assay [2] addresses T2, IL-8RB expressed on lentivirally transduced HEK 293T cells (UniProt P25025 1-360, limits assumed).
T2 construct: whole, on cells; also called IL-8R^+ cells; IL-6Rα^-/IL-8R^+ HEK 293T cells
T2 sequence (looked up): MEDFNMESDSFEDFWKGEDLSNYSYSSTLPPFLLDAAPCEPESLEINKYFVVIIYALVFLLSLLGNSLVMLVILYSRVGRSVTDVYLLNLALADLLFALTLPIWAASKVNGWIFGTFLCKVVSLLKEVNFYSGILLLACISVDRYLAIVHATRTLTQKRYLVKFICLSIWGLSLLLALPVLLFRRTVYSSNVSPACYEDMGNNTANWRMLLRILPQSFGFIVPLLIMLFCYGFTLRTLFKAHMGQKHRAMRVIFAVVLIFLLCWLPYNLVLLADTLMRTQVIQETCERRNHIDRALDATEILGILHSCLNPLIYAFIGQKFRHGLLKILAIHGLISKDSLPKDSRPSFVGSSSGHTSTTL
Nature of the assay: competition with 400 nM His-tagged IL-8 on IL-6Rα-/IL-8R+ HEK 293T cells, flow cytometry. How it is done: (§1) IL-6Rα⁺/IL-8R⁻ and IL-6Rα⁻/IL-8R⁺ HEK 293T cells were cultured as previously described, and were trypsinized, resuspended in PBSA, and aliquoted into 96-well plates (2×10⁵ cells per well). IL-6Rα⁺/IL-8R⁻ 293T cells were incubated with titrations of various monoclonal or bispecific antibodies in the presence of saturating concentration of biotinylated IL-6 (100 nM) (Acro Biosystem, cat #: IL6-H8218-25UG) for 2 hr at 4° C. with rotation. Cells were then washed and incubated with 1:200 dilution of Alexa Fluor 647-conjugated streptavidin (Fisher Scientific, cat #: S21374) in PBSA for 15 min at 4° C. After a final wash, cells were resuspended in PBSA and analyzed on a CytoFLEX flow cytometer (Beckman Coulter). Curves were fitted to a first-order logistic model and IC₅₀ values were calculated using GraphPad Prism data analysis software. Mean fluorescence intensity (MFI) of unstimulated cells was subtracted. Similarly, IL-6Rα⁻/IL-8R⁺ 293T cells were incubated with titrations of various monoclonal or bispecific antibodies with saturating concentration of His-tagged IL-8 (400 nM) (Sino Biological, cat #: 10098-H08Y-100) for 2 hr at 4° C. with rotation. […] After a final wash, cells were resuspended in PBSA and analyzed on a CytoFLEX flow cytometer (Beckman Coulter). Curves were fitted to a first-order logistic model and IC₅₀ values were calculated using GraphPad Prism data analysis software. […]
Background: Flow cytometry measures light scatter and fluorescence of single cells or particles in a stream.

For assay [3], the target named is T3, IL-6Rα expressed on lentivirally transduced HEK 293T cells (UniProt P08887 20-468, limits assumed).
T3 construct: whole, on cells; also called IL-6Rα^+ cells; IL-6Rα^+/IL-8R^- HEK 293T cells
T3 sequence (looked up): T1 sequence (looked up)
Nature of the assay: competition with 100 nM biotinylated IL-6 on IL-6Rα+/IL-8R- HEK 293T cells, flow cytometry. How it is done: as §1

Assay [4] has as its target T4, human IL-6Rα extracellular domain (ECD), residues 89-303 of the mature protein, with C-terminal biotin … (human, UniProt P08887 108-322, biotinylated with BirA ligase on the biotin acceptor peptide).
T4 construct: range 89-303; The range 89-303 counts on the mature protein, not on the precursor; Any linkers between the ECD, BAP and His tag are not described; also called IL-6Rα ECD; recombinant IL-6Rα
T4 sequence: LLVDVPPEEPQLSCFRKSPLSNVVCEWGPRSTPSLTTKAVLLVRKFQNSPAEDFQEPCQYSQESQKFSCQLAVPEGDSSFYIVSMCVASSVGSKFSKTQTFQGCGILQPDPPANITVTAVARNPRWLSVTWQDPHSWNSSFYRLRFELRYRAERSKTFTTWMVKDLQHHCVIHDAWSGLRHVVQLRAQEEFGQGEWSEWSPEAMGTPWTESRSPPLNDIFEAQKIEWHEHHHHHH
Description: competition: antibody against 300 nM biotinylated IL-6Rα ECD binding to IL-6-displaying yeast, flow cytometry. On the procedure:
Approximately 1×10⁵ human IL-6-displaying yeast per well were plated in a 96-well plate and washed with PBSA. Yeast cells were incubated with saturating concentrations of biotinylated human IL-6Rα (300 nM) and serial dilutions of unlabeled competitor antibody (either the anti-IL-6R antibody tocilizumab, the anti-IL-8R antibody 10H2, BS1, or BS2) in PBSA for 2 hours at room temperature. Cells were then washed and stained with a 1:200 dilution of Alexa647-conjugated streptavidin (Thermo) in PBSA for 15 min at 4° C. Cells were washed again and assessed for human IL-6Rα binding on a CytoFLEX flow cytometer (Beckman Coulter). Background-subtracted fluorescent signal as a fraction of receptor subunit binding in the absence of competitor antibody was plotted. Curves were fitted to a first order logistic model and half maximal inhibitory concentrations (IC₅₀s) were computed using GraphPad Prism. Assays were performed in triplicate and repeated two times with consistent results.
Tocilizumab is known to compete with IL-6 for IL-6Rα engagement. Thus, bispecific binding agents containing the tocilizumab variable regions (BS1 and BS2) were also expected to obstruct cytokine binding. […] However, tocilizumab (IC₅₀=59 nM), BS1 (IC₅₀=190 nM), and BS2 (IC₅₀=78 nM) all inhibited IL-6/IL-6Rα binding.

B1: BS1 bispecific binding agent (knobs-in-holes, single-chain Fab; tocilizumab arm and 10H2 arm) (bispecific antibody, human IgG1, kappa)
chain 1: AGSDIQMTQSPSSLSASVGDRVTITCRASQDISSYLNWYQQKPGKAPKLLIYYTSRLHSGVPSRFSGSGSGTDFTFTISSLQPEDIATYYCQQGNTLPYTFGQGTKVEIKRTVAAPSVFIFPPSDEQLKSGTASVVCLLNNFYPREAKVQWKVDNALQSGNSQESVTEQDSKDSTYSLSSTLTLSKADYEKHKVYACEVTHQGLSSPVTKSFNRGECGGSGGSSGSGSGSTGTSSSGTGTSAGTTGTSASTSGSGSGEVQLQESGPGLVRPSQTLSLTCTVSGYSITSDHAWSWVRQPPGRGLEWIGYISYSGITTYNPSLKSRVTMLRDTSKNQFSLRLSSVTAADTAVYYCARSLARTTAMDYWGQGSLVTVSSASTKGPSVFPLAPSSKSTSGGTAALGCLVKDYFPEPVTVSWNSGALTSGVHTFPAVLQSSGLYSLSSVVTVPSSSLGTQTYICNVNHKPSNTKVDKKVEPKSCDKTHTCPPCPAPELLGGPSVFLFPPKPKDTLMISRTPEVTCVVVDVSHEDPEVKFNWYVDGVEVHNAKTKPREEQYNSTYRVVSVLTVLHQDWLNGKEYKCKVSNKALPAPIEKTISKAKGQPREPQVYTLPPSREEMTKNQVSLSCAVKGFYPSDIAVEWESNGQPENNYKTTPPVLDSDGSFFLVSKLTVDKSRWQQGNVFSCSVMHEGLHNHYTQKSLSLSPGK
chain 2: AGSQAVVTQESALTTSPGETVTLTCRSSTGAVTTSNYANWVQEKPDHLFTGLIGGTNNRPPGVPARFSGSLIGDKAALTITGAQIEDEAIYFCALWYSNHLVFGGGTKLTVLRTVAAPSVFIFPPSDEQLKSGTASVVCLLNNFYPREAKVQWKVDNALQSGNSQESVTEQDSKDSTYSLSSTLTLSKADYEKHKVYACEVTHQGLSSPVTKSFNRGECGGSGGSSGSGSGSTGTSSSGTGTSAGTTGTSASTSGSGSGEVQLVETGGRLVQPKGSLKLSCAVSGITFKTNAMNWVRQAPGKGLEWVARIRTKSYNYATYYADSVKDRFTISRDDSQSILYLQMNNLKTEDTAMYHCVREGRWGQGTLVTVSAASTKGPSVFPLAPSSKSTSGGTAALGCLVKDYFPEPVTVSWNSGALTSGVHTFPAVLQSSGLYSLSSVVTVPSSSLGTQTYICNVNHKPSNTKVDKKV[human IgG1 Fc with changes not written out]
notes: Heterodimer of two single-chain Fab-Fc polypeptides, monovalent for each target
As a reminder, the IC50 is the point on the concentration scale where inhibition reaches its midpoint. Low values mean greater potency in that assay, high ones weaker potency in that assay. For the molecule B1, the “inhibition of IL-6-induced STAT3 phosphorylation in HepG2 cells (IC50)” value in assay [1] amounted to 110 nM. Moreover, the IC50 in assay [2] was 99 nM; in assay [3], 120 nM; in assay [4], 190 nM.
